# Reference: the supplement of paper PMC11417369
# ± gives the standard deviation of the averaged measurements. The list shows a part of the results.
# Tested on: PfAP2-G AP2 domain (GST-tagged)
# Experiment: gcPBM binding intensity (ln(normalized median fluorescence intensity)); higher = stronger DNA binding
# Procedure, shortened: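 Plasmodium falciparum DNA-binding domains carrying a GST tag were expressed in E. coli and applied for 1 h, at about 25 μg on average, to an Agilent 4 × 180k array. The array held primer-extended double-stranded 36-bp intergenic genomic probes together with negative controls, and binding took place in 1× PBS with 1% milk, 0.2 mg/ml BSA, 0.5% salmon testes DNA and 0.03% Triton X-100. An Alexa488 anti-GST antibody detected bound protein, and the array was scanned at 488 nm. Binding intensity is taken as the highest Masliner-normalised natural-log median intensity across replicate spots of either probe orientation.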
row,Sequence,gcPBM binding intensity (ln)
1,ATATAAACATGTTTGTGTACGTAATATGAAAAATAA [XGTACX_site8157],11.7 ± 1
2,GTATGTATAATATACACACTCACAAGCATTCAAATA [CACACA_site267],9.88 ± 0.057
3,TTGTTTTTAAGAAAAACACACACTCCTGTTATTTTA [CACACA_site9230],9.785 ± 0.049
4,AAATATTATACAAAAAAAAAAAAAAAAAAAATATAT [CACACA_negctrl_site52],9.61 ± 0.26
5,ATTTTGTATATATTTTGTACATATTTTGTATATATT [XGTACX_site885],10.8 ± 0.42
6,ATATAATAATTGTACACATGCACACACAAATATTAT [TGCATGCA_site204],11.5 ± 0.95
7,ATTTTTAATCATTTACAACCTAGTGATTATACAAAT [CACACA_negctrl_site1089],10 ± 0.21
8,CGTATGCGTATATACACACCCACGTATATATATAAA [CACACA_site3200],10.4 ± 0.28
9,ATAGCCAAAAATCATGCACACCTAAAAAAAAAAAAA [CACACA_site8826],10.1 ± 0.6
10,TATATTTATGTATATGTGCACATAAATTTAAGAATG [GTGCAC_site9512],10.5 ± 0.33
11,AAGAGAGACATCAACACACATACGTATGTATAGAAA [CACACA_site1397],10.12 ± 0.021
12,TTTTTTATTGTGATACGTATATTATTTTATGATTAA [GTGCAC_negctrl_site202],10.6 ± 0.35
13,GTATATATATTTGTACGTACATATTGTTGTAAACAC [XGTACX_site8833],11.7 ± 0.71
14,TTCATTTTAATAATATGTACATAATATATTTAAAAA [XGTACX_site634],11.3 ± 0.92
15,TTAAGTCATAAATAAAGTACATAAATATAATATATA [XGTACX_site6304],11.2 ± 0.86
16,ATGTAAATGTTATTATGTACATATTTATTCTTCAAA [XGTACX_site7377],11.1 ± 0.54
17,TCCAATTAAATATATGAACACACATGTGAACTTTCT [CACACA_site9318],9.965 ± 0.064
18,GGGGGTAGGGGAAGAAGTACAATGATCACTACAGTA [XGTACX_site1169],11.9 ± 1.3
19,TTTTTTATTAAAAGCGAAAAAAATGAAAACTTTTTT [GTGCAC_negctrl_site605],9.895 ± 0.035

row,Sequence,gcPBM binding intensity (ln)
1,TGTATATAGAAACATACACACATATTAATTTTACAT [CACACA_site3126],9.885 ± 0.092
2,TTTTTAATTAACTTTGTAAACTTATATATATATATA [TGCATGCA_negctrl_site311],9.99 ± 0.21
3,TTAAAGCACCCATGCACACACACAAGGGAAAAGAAA [CACACA_site4289],10.3 ± 0.4
4,AAGGAATATTAAGTGGGTACTAAAAAAAAATTAATT [XGTACX_site331],11.1 ± 0.76
5,GAAGTAGATGGAAAAGTGCACTGTAATGGTTATATT,10.3 ± 0.26
6,TTTATTGAACGTACACATATATATATGTATATATTT [TGCATGCA_negctrl_site141],11.3 ± 0.88
7,ATATTTATATGGTTTGCACACATAACAACTATGGTT [CACACA_site3631],10.06 ± 0.049
8,ATATAACATATCAATTGTACGTATTGATAATATATA [XGTACX_site2504],11.3 ± 0.98
9,TTTTGTTTTAATTTTATTTGATTTTATTTGATTTAT [CACACA_negctrl_site692],9.595 ± 0.007
10,AGGCACACAAACATATGTACACATATATATATATAT [XGTACX_site4723],11.4 ± 0.95
11,TTATTTTTTTTATATATATGTATAAATATATATATA [XGTACX_negctrl_site441],9.85 ± 0.2
12,CCACTAATAAATATTACACACATATAGATTTATATT [CACACA_site7465],9.97 ± 0.13
13,TCAATCATCTTATATAGTACACATAAAAGTATTATA [XGTACX_site8513],11.3 ± 0.81
14,GACAAAATGATAGGGACACACAATATCAATGTTTAA [CACACA_site765],10.7 ± 0.51
15,AAAAAAAAAAATCCAGTGCATATATTTTTTACATAT,9.62 ± 0.22
16,ATTACATTAATAAGAGTGCATTATATAAGTTTTATG,10.03 ± 0.064
17,TTTTGTTATTAGAGGGTGCTTATAATGAACTCCTAC,10.2 ± 0.34
18,CAAAAGGATATGCACACACACACACGGATATTTATA [CACACA_site7099],10.2 ± 0.15
19,CGTATATATATATACACACACATATATATATGTAAA [CACACA_site195],9.99 ± 0.099

row,Sequence,gcPBM binding intensity (ln)
1,TATTTCCATTCATAATTTTGTAGAATATATAACCGT [CACACA_negctrl_site1531],9.93 ± 0.17
2,AAAAACTTAATATTCACACATATATATATATATATA [CACACA_site5240],9.96 ± 0.49
3,AAAAAAAAAAATTACACACATACATATAATAATAAT [CACACA_site2193],9.85 ± 0.014
4,TAATTTATGAGTAATACACACACTTGTGGATATATT [CACACA_site3790],10.1 ± 0.13
5,TTTTATTATTAATTTCTTTTTTCTCATCACTTTCAA [XGTACX_negctrl_site117],9.785 ± 0.007
6,TTTACAAAAAATTATACACACACGTACATATAAATA [CACACA_site945],11.3 ± 0.76
7,ATATATATAAAATATACACACATACTGTTCATTTAA [CACACA_site6149],9.97 ± 0.057
8,TACGTTCTAATATATACACACCTGGTATTAATTATG [CACACA_site5260],10.125 ± 0.007
9,GAAAAATTTTTATATGTGCACATGTTATATATAATT [GTGCAC_site9742],10.6 ± 0.3
10,AAATATTATTTATTTACACACCAATCTTCTTTTCTT [CACACA_site3990],9.91 ± 0.11
11,AAAGAATACAAAATTGCACACATATTGTGAAAATGT [CACACA_site9327],9.96 ± 0.12
12,TATTAACACAATAGCGCACACTTTTAATATTTTATA [CACACA_site1617],10.2 ± 0.2
13,ATATAATGTTGTAATAGTACTTTTTTCATATAAATA [XGTACX_site2666],11.1 ± 0.66
14,CTTAAATTGAAATGTTGTACAAAGTAAAAACAATGA [XGTACX_site2123],11.2 ± 0.86
15,TTCGGAAAAATTAAAGCACACAAAAAAAAATAAAAA [CACACA_site8296],10.1 ± 0.14
16,GATTAACAACATATTAGTACATATATTATATATATA [XGTACX_site7646],11 ± 0.76
17,GACTATAATGTTTTGGTGCGTCATGTTATGGTCATC,10.4 ± 0.29
18,TATAAACCTTTTTGCACGCACACAAAAAAAAAATAA [CACACA_site168],10.6 ± 0.52
19,AAACATATATACATATGTACATATATACATATATGT [XGTACX_site5779],11.4 ± 0.54
